In PubChem BioAssay AID504332 (National Center for Advancing Translational Sciences (NCATS), 2011):
“And” between values parts separate entries of the source, which are not always exact repeats. Equal entries are not always repeated. Hit rate of the full screen: of about 350,000 compounds, about 31,000 (8.9%) were called active. Inconclusive results, whose numbers are uncertain, are shown with a selection of clear calls. The call rests on the fitted dose curve; in most records, active means well fitted inhibition curve with a large enough effect; inconclusive means small, poorly fitted or top-dose-only effect; inactive means no such curve, though single readings can be large or run the other way. Potencies of inconclusive entries are doubtful fits and often do not repeat.

molecular target: Histone-lysine N-methyltransferase EHMT2 (Homo sapiens) (UniProt Q96KQ7); assay: qHTS Assay for Inhibitors of Histone Lysine Methyltransferase G9a; conditions: G9a H3K9 monomethylation, AlphaScreen, 2 h; activity, negative = inhibition: at 59 µM (top of the series) unless noted; further: nearly all actives have a fitted effect of over 75% in size
Procedure, shortened: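 AlphaScreen read-out: biotin-H3K9 peptide (500 nM) methylation by 20 nM enzyme with 20 uM SAM, 2 h at room temperature after 15 min compound preincubation; anti-monomethyl H3K9 antibody plus donor/acceptor beads, 10 min dark.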
On the % scale 0 is the no-effect control and ±100 the full control effect; potency means the concentration at half of the fitted maximal effect; tags describe the fitted curve by direction and shape.

Chain of UniProt Q96KQ7 (Q96KQ7 whole entry, looked up): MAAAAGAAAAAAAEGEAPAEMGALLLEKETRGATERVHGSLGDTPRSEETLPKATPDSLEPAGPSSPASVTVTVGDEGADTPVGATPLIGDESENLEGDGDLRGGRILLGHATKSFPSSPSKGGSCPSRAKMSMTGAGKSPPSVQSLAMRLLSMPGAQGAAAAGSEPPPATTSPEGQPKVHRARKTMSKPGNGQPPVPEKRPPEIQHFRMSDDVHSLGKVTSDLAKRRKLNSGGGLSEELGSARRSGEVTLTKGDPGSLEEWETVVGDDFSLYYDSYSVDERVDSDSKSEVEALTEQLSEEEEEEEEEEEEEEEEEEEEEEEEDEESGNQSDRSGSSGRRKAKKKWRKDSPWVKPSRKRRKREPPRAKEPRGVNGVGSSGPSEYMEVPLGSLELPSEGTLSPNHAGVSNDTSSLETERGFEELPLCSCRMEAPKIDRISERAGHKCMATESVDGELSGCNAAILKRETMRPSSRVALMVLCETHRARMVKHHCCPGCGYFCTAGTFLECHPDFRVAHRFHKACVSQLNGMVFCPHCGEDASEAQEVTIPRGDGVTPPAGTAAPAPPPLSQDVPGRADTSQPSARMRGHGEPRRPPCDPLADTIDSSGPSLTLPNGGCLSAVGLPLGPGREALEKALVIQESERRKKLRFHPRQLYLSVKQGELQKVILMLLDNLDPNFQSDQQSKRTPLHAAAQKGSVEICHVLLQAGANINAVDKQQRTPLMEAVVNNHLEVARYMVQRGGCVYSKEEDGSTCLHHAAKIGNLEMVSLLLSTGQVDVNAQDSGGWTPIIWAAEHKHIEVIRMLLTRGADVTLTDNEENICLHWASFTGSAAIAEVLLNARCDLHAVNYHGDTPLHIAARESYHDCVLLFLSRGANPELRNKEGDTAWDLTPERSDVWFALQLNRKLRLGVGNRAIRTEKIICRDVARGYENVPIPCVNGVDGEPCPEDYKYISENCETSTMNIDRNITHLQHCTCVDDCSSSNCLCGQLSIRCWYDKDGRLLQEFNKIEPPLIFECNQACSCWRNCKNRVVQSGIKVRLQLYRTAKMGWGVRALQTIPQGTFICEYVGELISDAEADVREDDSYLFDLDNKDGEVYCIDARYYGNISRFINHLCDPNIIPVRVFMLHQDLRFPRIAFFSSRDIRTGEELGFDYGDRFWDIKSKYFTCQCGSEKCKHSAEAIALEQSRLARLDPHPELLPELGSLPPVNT

SMILES | Potency | activity, negative = inhibition
Brc1c(Br)c(Br)c2n[nH]nc2c1Br | inactive | 
COc1ccc(OC)c(N2C(=O)/C(=C/c3ccco3)C(=O)NC2=S)c1 | active: 1.78 µM | 
O=C(O)C(Cc1cnc[nH]1)NS(=O)(=O)c1ccc(Cl)cc1 (stereo not given) | inconclusive: 28.2 µM [inhibitor, single point] | 
FC(F)(F)c1cccc(C2NCc3ccccc3-n3cccc32)c1 (stereo not given) | inconclusive: 79.4 µM [inhibitor, single point] | 
O=C1NC(=O)C2(Cc3ccccc3N3CCCC32)C(=O)N1 (stereo not given) | active: 50.1 µM | 
CCN1CC=C(c2c[nH]c3ccccc23)CC1 | inconclusive: 89.1 µM [inhibitor, single point] | 
c1csc(C2(N3CCCCC3)CCCCC2)c1 |  | inactive: -0.0132% [at 12.7 µM]
Cc1ccc2c(c1)C1CN(C)CCC1N2C(=S)Nc1cccnc1 (stereo not given) | inconclusive: 3.55 µM [inhibitor, full curve, poor fit] | 
OC(CCNCCc1c[nH]c2ccccc12)C(F)(F)Cl (stereo not given) |  | inactive: -25.8% [at 102 µM]
c1cncc(CNC2=NCCCCC2)c1 | inconclusive: 25.1 µM [inhibitor, partial curve, poor fit] | 
COc1ccc(Nc2c(-c3cc(Br)ccc3O)nc3ncccn23)cc1OC | active: 10 µM | 
c1ccc(C2CC3CC(c4ccco4)N2O3)cc1 (stereo not given) | inconclusive: 39.8 µM [inhibitor, single point] | 
Cc1cccc(CN(C)C)c1OC(=O)N(C)C | inconclusive: 6.31 µM [inhibitor, partial curve, poor fit] | 
N#CCCn1cc(C(=O)Nc2ccc([N+](=O)[O-])cc2)c(-c2ccc3c(c2)OCCO3)n1 | inconclusive: 10 µM [inhibitor, partial curve, poor fit] | 
CN(C)CC1CSCCC1(O)c1ccccc1Cl (stereo not given) | inconclusive: 39.8 µM [inhibitor, single point] | 
Cn1c(O)c(C=NCCN2CCN(C(=O)c3ccccc3)CC2)c(=O)n(C)c1=O | inconclusive: 2.82 µM [inhibitor, partial curve, poor fit] | 
C(#CCN1CCOCC1)COC/C=C/c1ccccc1 | active: 44.7 µM | 
CCC1(C)OC(c2ccccc2)=C/C(=C/C=C2C(=O)NC(=O)NC2=O)O1 (stereo not given) | active: 50.1 µM | 
O=C(Cc1ccccc1)N1CCN(Cc2cccnc2)CC1 | active: 6.31 µM | 
CCCC12CN3CC(C)(CN(C1)C3c1c(C)[nH]c(=O)[nH]c1=O)C2=O (stereo not given) | inconclusive: 35.5 µM [inhibitor, single point] | 
NNC(=O)c1ccc(O)cc1 | inconclusive: 70.8 µM [inhibitor, partial curve] and inconclusive: 355 nM [inhibitor, full curve, poor fit] and inconclusive: 33.6 nM [inhibitor, full curve] | 
CCN(CCO)c1ccc(N=Cc2c(O)n(C)c(=S)[nH]c2=O)cc1 | active: 35.5 µM | 
O=C1C2CCN(CC2)[C@@H]1Cc1ccc2ccccc2c1O | inconclusive: 2.51 µM [inhibitor, partial curve, poor fit] | 

SMILES | Potency | activity, negative = inhibition
CCCC1=Nc2cc(C(=O)NCCCN(CC)CC)ccc2Sc2ccccc21 |  | inactive: -26.5%
COc1ccc(C(Nc2ccccc2)P(=O)(Oc2ccccc2)Oc2ccccc2)cc1 (stereo not given) | inconclusive: 14.1 µM [inhibitor, partial curve, poor fit] | 
CCC1(C(=O)c2ccc(C)cc2)C2c3ccccc3OC(=O)C21C(=O)O (stereo not given) | inconclusive: 50.1 µM [inhibitor, partial curve, poor fit] | 
COc1ccc(Cn2c(N)c(C(=O)NCc3ccco3)c3nc4ccccc4nc32)cc1OC | inconclusive: 79.4 µM [inhibitor, single point] | 
O=C(N/N=C/c1ccc([N+](=O)[O-])o1)c1cc([N+](=O)[O-])cc([N+](=O)[O-])c1O | inconclusive: 2 µM [inhibitor, partial curve, poor fit] | 
O=P(O)(CCc1ccccn1)CN1CCCCC1 | inconclusive: 100 µM [inhibitor, single point] | 
C=C1N2CCC(CC2)C1(O)c1ccccc1C (stereo not given) | inconclusive: 89.1 µM [inhibitor, single point] | 
CCN1/C(=C\C=C\C2=[N+](CC)c3ccccc3C2(C)C)C(C)(C)c2ccccc21 | inconclusive: 35.5 µM [inhibitor, single point] | 
C[C@@H]1NCCc2cc(O)c(O)cc21 | active: 3.55 µM and active: 1.78 µM | 
COc1ccc(OCC#CCN2CCNCC2)cc1 | active: 8.91 µM | 
CNCCc1c[nH]c2ccc(O)cc12 | active: 7.08 µM and active: 10 µM | 
NNS(=O)(=O)c1ccc(Sc2ccccn2)c([N+](=O)[O-])c1 | active: 39.8 µM | 
COc1ccc(N2C(=O)NC(=O)/C(=C/c3ccc(N4CCOCC4)cc3)C2=O)cc1 | active: 50.1 µM | 
COc1cc(C(=O)N/N=C/c2ccc(OC(=O)N3CCOCC3)cc2)cc(OC)c1OC | inconclusive: 79.4 µM [inhibitor, single point] | 
CN1CCN(CCC(C#N)(c2ccccc2)c2ccccc2)CC1 | inconclusive: 14.1 µM [inhibitor, partial curve, poor fit] | 
O=[N+]([O-])c1ccc(N2CCOCC2)c2ccncc12 | inconclusive: 44.7 µM [inhibitor, partial curve] | 
COc1ccccc1CCNC1CCC(C(C)(C)C)CC1 (stereo not given) | inconclusive: 3.16 µM [inhibitor, full curve, poor fit] | 
COc1ccc(CNCCc2ccc3c(c2)OCO3)cc1Br | active: 5.01 µM | 
Oc1ccc(/C=N/NP(=S)(c2ccccc2)c2ccccc2)cc1O | inconclusive: 17.8 µM [inhibitor, partial curve] | 
CC(COc1ccccc1)N(CCCl)Cc1ccccc1 (stereo not given) |  | inactive: -43.4% [at 2.33 µM] and inactive: 25.7% [at 12.7 µM]
CCCC1(CCC)C(=O)NC(=Nc2ccccc2)NC1=O |  | inactive: -2.55% [at 102 µM]
Cc1ccc(-c2nc(CN3C(=O)CN=C(c4ccccc4)c4ccccc43)c(C)o2)cc1 | inconclusive: 39.8 µM [inhibitor, partial curve, poor fit] | 
